Measured values published in PMC9911399, “Two distinct binding modes provide the RNA-binding protein RbFox with extraordinary sequence specificity”.
Changes are numbered by the printed parent chain; changes in the protein carry UniProt numbers. The list shows a part of the results.

T1: RBFOX1 RRM RbFoxmut (Fox-RRM*) (Homo sapiens, UniProt Q9NWB1 109-208, R118D;E147R;N151S;E152T)
T1 sequence: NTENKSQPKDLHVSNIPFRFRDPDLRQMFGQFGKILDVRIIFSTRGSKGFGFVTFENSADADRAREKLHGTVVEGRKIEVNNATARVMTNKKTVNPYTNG

B1: GGUAGUA (DNA:RNA)
RNA: GGGAGACCGGAAUUCAGAUUGUCCGGUAGUAUUAAAUCCCGUCGUAGCCACCA
DNA 1: CAATCTGAATTCCGGTCTCCC
DNA 2: TGGTGGCTACGACGGGATT
B2: UAAGCAU (DNA:RNA)
RNA: GGGAGACCGGAAUUCAGAUUGUCCUAAGCAUUUAAAUCCCGUCGUAGCCACCA
DNA 1: CAATCTGAATTCCGGTCTCCC
DNA 2: TGGTGGCTACGACGGGATT
B3: CGGGGGU (DNA:RNA)
RNA: B1 RNA with G25C, U27G, A28G, U30G, A31U
DNA 1: CAATCTGAATTCCGGTCTCCC
DNA 2: TGGTGGCTACGACGGGATT
B4: UUAUUGA (DNA:RNA)
RNA: B2 RNA with A26U, G28U, C29U, A30G, U31A
DNA 1: CAATCTGAATTCCGGTCTCCC
DNA 2: TGGTGGCTACGACGGGATT
B5: UUUUACU (DNA:RNA)
RNA: B2 RNA with A26U, A27U, G28U, C29A, A30C
DNA 1: CAATCTGAATTCCGGTCTCCC
DNA 2: TGGTGGCTACGACGGGATT
B6: UGCACUG (DNA:RNA)
RNA: B1 RNA with G25U, U27C, G29C, A31G
DNA 1: CAATCTGAATTCCGGTCTCCC
DNA 2: TGGTGGCTACGACGGGATT
B7: GAGUCUG (DNA:RNA)
RNA: B1 RNA with G26A, U27G, A28U, G29C, A31G
DNA 1: CAATCTGAATTCCGGTCTCCC
DNA 2: TGGTGGCTACGACGGGATT
B8: GUCGGCG (DNA:RNA)
RNA: B1 RNA with G26U, U27C, A28G, U30C, A31G
DNA 1: CAATCTGAATTCCGGTCTCCC
DNA 2: TGGTGGCTACGACGGGATT
B9: UCCAACC (DNA:RNA)
RNA: B1 RNA with G25U, G26C, U27C, G29A, U30C, A31C
DNA 1: CAATCTGAATTCCGGTCTCCC
DNA 2: TGGTGGCTACGACGGGATT
B10: GCCCAAU (DNA:RNA)
RNA: B2 RNA with U25G, A26C, A27C, G28C, C29A
DNA 1: CAATCTGAATTCCGGTCTCCC
DNA 2: TGGTGGCTACGACGGGATT
B11: CCCCAUA (DNA:RNA)
RNA: B1 RNA with G25C, G26C, U27C, A28C, G29A
DNA 1: CAATCTGAATTCCGGTCTCCC
DNA 2: TGGTGGCTACGACGGGATT
B12: CAACUCG (DNA:RNA)
RNA: B2 RNA with U25C, G28C, C29U, A30C, U31G
DNA 1: CAATCTGAATTCCGGTCTCCC
DNA 2: TGGTGGCTACGACGGGATT
B13: CCGCCAC (DNA:RNA)
RNA: B2 RNA with U25C, A26C, A27G, G28C, U31C
DNA 1: CAATCTGAATTCCGGTCTCCC
DNA 2: TGGTGGCTACGACGGGATT
B14: UAUGGUG (DNA:RNA)
RNA: B1 RNA with G25U, G26A, A28G, A31G
DNA 1: CAATCTGAATTCCGGTCTCCC
DNA 2: TGGTGGCTACGACGGGATT
B15: UGGGUAU (DNA:RNA)
RNA: B2 RNA with A26G, A27G, C29U
DNA 1: CAATCTGAATTCCGGTCTCCC
DNA 2: TGGTGGCTACGACGGGATT
B16: CUAGGGC (DNA:RNA)
RNA: B2 RNA with U25C, A26U, C29G, A30G, U31C
DNA 1: CAATCTGAATTCCGGTCTCCC
DNA 2: TGGTGGCTACGACGGGATT
B17: GCCCUUA (DNA:RNA)
RNA: B1 RNA with G26C, U27C, A28C, G29U
DNA 1: CAATCTGAATTCCGGTCTCCC
DNA 2: TGGTGGCTACGACGGGATT
B18: ACCUCCG (DNA:RNA)
RNA: B2 RNA with U25A, A26C, A27C, G28U, A30C, U31G
DNA 1: CAATCTGAATTCCGGTCTCCC
DNA 2: TGGTGGCTACGACGGGATT
B19: UUCGUGU (DNA:RNA)
RNA: B2 RNA with A26U, A27C, C29U, A30G
DNA 1: CAATCTGAATTCCGGTCTCCC
DNA 2: TGGTGGCTACGACGGGATT
B20: GCAUUAG (DNA:RNA)
RNA: B2 RNA with U25G, A26C, G28U, C29U, U31G
DNA 1: CAATCTGAATTCCGGTCTCCC
DNA 2: TGGTGGCTACGACGGGATT
B21: UUCCAGA (DNA:RNA)
RNA: B1 RNA with G25U, G26U, U27C, A28C, G29A, U30G
DNA 1: CAATCTGAATTCCGGTCTCCC
DNA 2: TGGTGGCTACGACGGGATT
B22: UACUGUC (DNA:RNA)
RNA: B1 RNA with G25U, G26A, U27C, A28U, A31C
DNA 1: CAATCTGAATTCCGGTCTCCC
DNA 2: TGGTGGCTACGACGGGATT
B23: CCGCUAG (DNA:RNA)
RNA: B2 RNA with U25C, A26C, A27G, G28C, C29U, U31G
DNA 1: CAATCTGAATTCCGGTCTCCC
DNA 2: TGGTGGCTACGACGGGATT
B24: UCGCGUC (DNA:RNA)
RNA: B1 RNA with G25U, G26C, U27G, A28C, A31C
DNA 1: CAATCTGAATTCCGGTCTCCC
DNA 2: TGGTGGCTACGACGGGATT
B25: GUCACCA (DNA:RNA)
RNA: B1 RNA with G26U, U27C, G29C, U30C
DNA 1: CAATCTGAATTCCGGTCTCCC
DNA 2: TGGTGGCTACGACGGGATT
B26: GGAAUAC (DNA:RNA)
RNA: B1 RNA with U27A, G29U, U30A, A31C
DNA 1: CAATCTGAATTCCGGTCTCCC
DNA 2: TGGTGGCTACGACGGGATT
B27: UCUUAAC (DNA:RNA)
RNA: B2 RNA with A26C, A27U, G28U, C29A, U31C
DNA 1: CAATCTGAATTCCGGTCTCCC
DNA 2: TGGTGGCTACGACGGGATT
B28: CCUAAGA (DNA:RNA)
RNA: B1 RNA with G25C, G26C, G29A, U30G
DNA 1: CAATCTGAATTCCGGTCTCCC
DNA 2: TGGTGGCTACGACGGGATT
B29: GAAUAAU (DNA:RNA)
RNA: B2 RNA with U25G, G28U, C29A
DNA 1: CAATCTGAATTCCGGTCTCCC
DNA 2: TGGTGGCTACGACGGGATT
B30: AGACUUA (DNA:RNA)
RNA: B1 RNA with G25A, U27A, A28C, G29U
DNA 1: CAATCTGAATTCCGGTCTCCC
DNA 2: TGGTGGCTACGACGGGATT
B31: GGAAUAU (DNA:RNA)
RNA: B1 RNA with U27A, G29U, U30A, A31U
DNA 1: CAATCTGAATTCCGGTCTCCC
DNA 2: TGGTGGCTACGACGGGATT

biological target: T1, RBFOX1 RRM RbFoxmut (Fox-RRM*); assay: EMSA; HiTS-Eq, 1 nM pool, 10 min; buffer printed only for the single-RNA assays: 10 mM Tris pH 7.5, 150 mM NaCl, 3.4 mM EDTA, 0.001% NP-40, 30 C; conditions: tags: His6 N-terminal (pET28a); label: 5' 32P
Outline: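 A pool of RNA with 7 randomized nucleotides, 5′-radiolabelled and with DNA-annealed flanks, was equilibrated at 1 nM for 10 min in 50 µL with purified RbFox RRM, wild type or mutant, across increasing protein concentrations. Free RNA was separated by 8% native PAGE, excised, reverse-transcribed, barcoded by PCR and sequenced. Relative association constants were obtained from read-count changes of each RNA species versus the control reaction and normalised to the cognate motif.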

**Q.** For B1, which binding signal is on record?
**A.** 0.128 KA relative to UGCAUGU

**Q.** With B2 as the binder, how does the binding signal read?
**A.** 0.0933 KA relative to UGCAUGU

**Q.** With B3 as the binder, how does the binding signal read?
**A.** 0.13 KA relative to UGCAUGU

**Q.** How did the binding signal turn out when B4 was run?
**A.** 0.0853 KA relative to UGCAUGU

**Q.** B5 was tested. Which binding signal did it give?
**A.** 0.0999 KA relative to UGCAUGU

**Q.** Which binding signal does the source give for B6 here?
**A.** 0.104 KA relative to UGCAUGU

**Q.** Which binding signal does the source give for B7 here?
**A.** 0.159 KA relative to UGCAUGU

**Q.** Which binding signal does the source give for B8 here?
**A.** 0.144 KA relative to UGCAUGU

**Q.** Which binding signal does the source give for B9 here?
**A.** 0.0389 KA relative to UGCAUGU

**Q.** For B10, which binding signal is on record?
**A.** 0.0622 KA relative to UGCAUGU

**Q.** With B11 as the binder, how does the binding signal read?
**A.** 0.123 KA relative to UGCAUGU

**Q.** For B12, which binding signal is on record?
**A.** 0.142 KA relative to UGCAUGU

**Q.** Which binding signal does the source give for B13 here?
**A.** 0.0628 KA relative to UGCAUGU

**Q.** For B14, which binding signal is on record?
**A.** 0.131 KA relative to UGCAUGU

**Q.** Which binding signal does the source give for B15 here?
**A.** 0.172 KA relative to UGCAUGU

**Q.** With B16 as the binder, how does the binding signal read?
**A.** 0.0765 KA relative to UGCAUGU

**Q.** B17 was tested. Which binding signal did it give?
**A.** 0.0811 KA relative to UGCAUGU

**Q.** For B18, which binding signal is on record?
**A.** 0.0628 KA relative to UGCAUGU

**Q.** B19 was tested. Which binding signal did it give?
**A.** 0.13 KA relative to UGCAUGU

**Q.** B20 was tested. Which binding signal did it give?
**A.** 0.153 KA relative to UGCAUGU

**Q.** B21 was tested. Which binding signal did it give?
**A.** 0.0838 KA relative to UGCAUGU

**Q.** B22 was tested. Which binding signal did it give?
**A.** 0.167 KA relative to UGCAUGU

**Q.** For B23, which binding signal is on record?
**A.** 0.0977 KA relative to UGCAUGU

**Q.** B24 was tested. Which binding signal did it give?
**A.** 0.145 KA relative to UGCAUGU

**Q.** Which binding signal does the source give for B25 here?
**A.** 0.0826 KA relative to UGCAUGU

**Q.** Which binding signal does the source give for B26 here?
**A.** 0.0833 KA relative to UGCAUGU

**Q.** With B27 as the binder, how does the binding signal read?
**A.** 0.102 KA relative to UGCAUGU

**Q.** Which binding signal does the source give for B28 here?
**A.** 0.104 KA relative to UGCAUGU

**Q.** For B29, which binding signal is on record?
**A.** 0.137 KA relative to UGCAUGU

**Q.** B30 was tested. Which binding signal did it give?
**A.** 0.0919 KA relative to UGCAUGU

**Q.** B31 was tested. Which binding signal did it give?
**A.** 0.102 KA relative to UGCAUGU
